# Assay results from PMC4336329 (PLoS ONE, 2015).
# Out of some 310,000 compounds screened, about 2,200 (0.71%) showed an effect of 50% or more. The effect is printed as a negative number. The list shows a part of the results.
# Biological target: human ether-à-go-go-related gene (hERG) potassium channel (human, UniProt Q12809)
# Assay: primary screen, population patch clamp on CHO cells stably expressing hERG
# Sequence of human ether-à-go-go-related gene (hERG) potassium channel (Q12809 whole entry, looked up): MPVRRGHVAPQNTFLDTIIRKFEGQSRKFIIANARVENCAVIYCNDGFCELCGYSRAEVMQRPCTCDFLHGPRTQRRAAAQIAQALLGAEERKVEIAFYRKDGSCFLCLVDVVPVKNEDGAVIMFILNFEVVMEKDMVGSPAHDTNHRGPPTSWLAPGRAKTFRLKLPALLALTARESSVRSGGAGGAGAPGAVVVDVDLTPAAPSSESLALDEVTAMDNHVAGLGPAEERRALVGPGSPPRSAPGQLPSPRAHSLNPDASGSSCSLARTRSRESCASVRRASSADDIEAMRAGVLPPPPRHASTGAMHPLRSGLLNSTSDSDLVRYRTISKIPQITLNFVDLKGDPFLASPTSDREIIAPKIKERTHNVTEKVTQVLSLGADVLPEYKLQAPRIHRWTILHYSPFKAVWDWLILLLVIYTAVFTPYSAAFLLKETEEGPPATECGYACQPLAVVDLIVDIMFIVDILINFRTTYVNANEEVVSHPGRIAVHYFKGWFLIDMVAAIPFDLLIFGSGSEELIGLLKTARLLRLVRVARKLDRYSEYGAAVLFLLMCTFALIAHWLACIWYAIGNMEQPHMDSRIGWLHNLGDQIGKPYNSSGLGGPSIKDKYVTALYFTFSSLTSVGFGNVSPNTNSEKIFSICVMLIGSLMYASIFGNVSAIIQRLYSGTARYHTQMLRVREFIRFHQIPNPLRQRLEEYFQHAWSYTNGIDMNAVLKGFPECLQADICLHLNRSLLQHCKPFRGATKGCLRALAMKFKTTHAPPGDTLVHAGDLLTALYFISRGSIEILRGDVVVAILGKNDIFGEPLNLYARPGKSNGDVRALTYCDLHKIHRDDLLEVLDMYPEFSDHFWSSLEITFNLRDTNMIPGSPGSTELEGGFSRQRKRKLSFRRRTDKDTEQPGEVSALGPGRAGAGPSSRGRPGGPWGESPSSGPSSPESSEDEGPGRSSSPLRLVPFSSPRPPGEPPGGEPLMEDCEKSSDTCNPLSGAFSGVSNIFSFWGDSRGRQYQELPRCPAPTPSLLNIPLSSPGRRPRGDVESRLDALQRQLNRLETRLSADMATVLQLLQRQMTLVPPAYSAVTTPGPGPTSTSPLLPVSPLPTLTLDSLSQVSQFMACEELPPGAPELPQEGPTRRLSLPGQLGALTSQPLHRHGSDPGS
row,Compound,"hERG current change (%, negative = inhibition) at 1uM [%]"
1,Cc1cc(Cl)c(S(=O)(=O)N2CCN(c3ccccn3)CC2)cc1OCC(=O)NC1CCCCC1,-15.2
2,CC(=O)Nc1coc2ccc(Br)cc12,3.95
3,CN(C(=O)COc1ccc(Br)cc1Cl)C1CCCCC1,0.251
4,CCC(=O)N1CCN(c2nnc(-c3ccccc3)c3ccccc23)CC1,-2.8
5,CCCOc1ccc(C(=O)NCc2cccnc2)cc1,8.6
6,CN(CC(=O)Nc1ccc(F)cc1)C(=O)c1ccncc1,11
7,COC(=O)Cn1cc(/C=N/NC(=O)c2ccc(C#N)cc2F)c2ccccc21,3.73
8,CCOC(=O)N1CCC(N2C(=O)c3ccccc3C2=O)CC1,5.52
9,Cc1ccc(-c2nc(N)sc2CC(=O)OCC(=O)NC2CCCC(C)C2C)cc1 (centres unmarked),5.55
10,O=C(NNS(=O)(=O)c1ccc(C(F)(F)F)cc1)c1cnn(-c2ccccc2)c1C(F)(F)F,5
11,COc1cccc2c1c(NC(=O)Nc1ccc(F)cc1F)nn2C,12.1
12,CCN(CC)CCN(C)C1CCC(c2ccccc2)CC1 (centres unmarked),15.4
13,S=C1N(c2ccccc2)C(c2ccc(Cl)cc2)N2CCCN12 (centres unmarked),3.34
14,CCOC(=O)c1c(Cl)c(C)nn1-c1nc(OC)cc(OC)n1,6.97
15,CC1CN(Cc2nc3c(c(=O)n(C)c(=O)n3C)n2CC(=O)c2ccccc2)CC(C)O1 (centres unmarked),16.8
16,COc1ccc(CC(NC(C)=O)C(=O)NC2CCN(S(=O)(=O)c3ccccc3)CC2)cc1OC (centres unmarked),13.2
17,Cc1ccc(NC(=O)N2CCCCC2)cc1NC(=O)N1CCCCC1,18
18,CNP(=S)(NC)OCCOc1ccc(OC)cc1,8.86
19,Cc1ccccc1OCC(=O)O/N=C(\N)Cc1cccs1,12.3
20,C=CCSc1nnc(-c2ccccc2NC(=O)CC)c(=O)[nH]1,6
21,COc1cccc(NS(=O)(=O)Cc2ccccc2)c1,12.8
22,Oc1ccc(-c2csc(Nc3ncccn3)n2)c(O)c1,16.2
23,CCc1ccc(OCC(=O)N2CCc3ccccc32)cc1,9.75

row,Compound,"hERG current change (%, negative = inhibition) at 1uM [%]"
1,Cc1ccc(-c2nn(-c3ccccc3)cc2NC(=O)c2ccccc2)cc1,10.8
2,O=C(NCCCc1nc2ccccc2[nH]1)c1ccc(F)cc1,13.7
3,O=C(c1cccc(Cl)c1)C1CCCN(Cc2ccon2)C1 (centres unmarked),10.2
4,CC(=O)Nc1ccc(CN2CCCN(C)CC2)cc1,14.6
5,CC(=O)c1ccccc1NC(=O)COC(=O)CN1C(=O)C2CCCCC2C1=O (centres unmarked),0.614
6,O=C(/C=C/c1ccccc1[N+](=O)[O-])NCc1ccccc1Cl,17
7,O=C(N/N=C\c1ccc([N+](=O)[O-])s1)C1COc2ccccc2O1 (centres unmarked),-13.1
8,Cc1cc(C)cc(NC(=O)N2CCC(C(=O)c3ccc(F)cc3)CC2)c1,-10.3
9,COC(=O)CNC(=O)c1nn(-c2cccc(OC)c2)c(=O)c2ccccc12,9.98
10,COc1cccc(-n2c(Cc3cc(=O)[nH]c(=O)[nH]3)nnc2SCC(=O)N2CCCC2)c1,4.29
11,Cc1c(Cl)cccc1NC(=S)NCc1ccc(F)cc1,8.43
12,CSc1ccccc1OCc1cc(C(=O)N(C)CCn2nc(C)cc2C)no1,8.12
13,COc1ccc(/C=C/C(=O)c2nc3ccccc3n2CC(=O)c2ccc(OC)cc2)cc1,10.6
14,CCCCc1ccc(-c2nc(-c3ccncc3)no2)cc1,11.2
15,Cc1ccccc1-c1nc(CN2CCSCC2)c(C)o1,3.9
16,CN(CC(=O)Nc1ccccc1Br)C(=O)c1cc(Cl)nc2ccccc12,9.63
17,CCCN(Cc1cc(=O)[nH]c2ccccc12)C(=O)CC,18.9
18,CCOCCCNC(=O)c1ccccc1OC1CCN(S(C)(=O)=O)CC1,11.9
19,S=C(Nc1cccc(Br)c1)c1ccccc1,2.88
20,CCC(=O)N1CCN(c2ccccc2NC(=O)COc2cccc(C)c2)CC1,6.78
21,Br.Cc1ccc(C(=O)Cn2c(NCCO)nc3ccccc32)cc1,0.73
22,Cc1ccc(-c2nnc(SCC(=O)N/N=C/c3cccs3)n2-c2ccc(C)cc2)cc1,6.21
23,COc1ccc(OCCC(=O)N2CCOCC2)cc1,10.9

row,Compound,"hERG current change (%, negative = inhibition) at 1uM [%]"
1,O=c1oc2ccccc2c(N2CCCC2)c1[N+](=O)[O-],1.12
2,CCC(=O)Nc1nnc(S(=O)(=O)N2CCCc3ccccc32)s1,11.4
3,Nc1n[nH]c(N)c1N=Nc1ccc2c(c1)OCO2,12.5
4,COc1ccc2c(c1)OC[C@H]1[C@H]2N2C(=O)[C@H](C)NC(=O)[C@@]2(C)[C@H]1c1ccccc1,19.2
5,CCCCn1cnc(C(=O)OCC)c1N,4.92
6,CNC(=S)N(Cc1ccc(OC)cc1)Cc1cc2cc(C)ccc2[nH]c1=O,15.3
7,COc1ccccc1N1CCN(C(c2ccccn2)c2nnnn2C2CCCCC2)CC1 (centres unmarked),0.0559
8,CC(N)C(=O)NC(C(=O)N1CCCC1C(=O)NC(c1ccccc1)c1ccccc1)C(C)C.O=C(O)C(F)(F)F (centres unmarked),7.48
9,Cn1nc(C(=O)N2CCC(C(N)=O)CC2)c2c1-c1ccccc1SC2,4.04
10,COc1ccc2sc(NC(=O)CC(C)C)nc2c1,8.55
11,CCOCc1nnc(NC(=O)c2cc(C(=O)OC)cc([N+](=O)[O-])c2)s1,13.7
12,CCN(CC)CCN(Cc1cc2cc3c(cc2[nH]c1=O)OCO3)C(=S)NCCCN(C)C,19.6
13,CC[C@]1(O)C[C@@H]2CN(CCc3c([nH]c4ccccc34)[C@@](C(=O)OC)(c3cc4c(cc3OC)N(C)[C@H]3[C@@](O)(C(=O)OC)[C@H](OC(C)=O)[C@]5(CC)C=CCN6CC[C@]43[C@@H]65)C2)C1.O=S(=O)(O)O,5.47
14,CCOc1ccc(-c2[nH]ncc2-c2csc(C)n2)c(O)c1,-2.34
15,CCOC(=O)C(=CNc1ccc(-c2ccco2)c(Cl)c1)C(=O)OCC,9.73
16,CCn1nnnc1NC(=O)c1cc(OC)c(OC)c(OC)c1,-0.215
17,CCN1C(=O)/C(=C/N2CCc3ccccc32)SC1=S,13.9
18,CN(CC12CC3CC(CC(C3)C1)C2)C(=O)c1ccco1,2.84
19,Cc1cc(NC(=O)CN2C(=O)NC(c3ccccc3)(c3ccc(C)c(C)c3)C2=O)no1 (centres unmarked),-10.9
20,O=C(c1ccc(-c2ccccc2Cl)o1)N1CCCC(C(F)(F)F)C1 (centres unmarked),13.2
21,Cc1cc(C)n(CCOc2ccc(Br)cc2)n1,6.58
22,Cc1cc(C)c(-c2csc(NC(=O)c3cc([N+](=O)[O-])ccc3N3CCOCC3)n2)c(C)c1,-1.74
23,CCc1nnc(NC(=O)CN2CCN(c3cccc(OC)c3)CC2)s1,2.37

row,Compound,"hERG current change (%, negative = inhibition) at 1uM [%]"
1,COc1ccc2c(c1)c(=O)c(C(=O)c1ccccc1)cn2Cc1ccc(C)cc1,-0.852
2,CCN1CCN(C(=O)C2CCN(c3nnc(C)c4c(C)n(-c5ccc(C)cc5)nc34)CC2)CC1,13.4
3,CC(C)C1CC(C(F)(F)F)n2nc(C(=O)O)cc2N1 (centres unmarked),12.9
4,Cc1ccc2cc(C(c3nnnn3C3CCCC3)N(Cc3ccccc3)Cc3ccco3)c(=O)[nH]c2c1 (centres unmarked),12.1
5,CCn1c(CCNC(=O)c2cccs2)nnc1SCC(=O)Nc1ccc(Cl)cc1,-16
6,Cc1ccc(CN2CCN(/N=C/c3ccccc3)CC2)cc1,2.28
7,O=C(N/N=C/c1coc2ccc(Cl)cc2c1=O)c1ccc(O)cc1,11.4
8,C=CCc1ccccc1OCC(O)CN1CCN(c2ccccc2F)CC1.Cl (centres unmarked),-0.42
9,CC1(c2ccc(Cl)cc2)NC(=O)N(CC(=O)c2ccc3c(c2)OCO3)C1=O (centres unmarked),4.44
10,O=C(NCc1ccco1)c1ccc(=O)[nH]n1,7.66
11,Cn1c(O)c(C=Nc2ccc(Cl)cc2)c(=O)n(C)c1=O,13.9
12,CCOC(=O)Cn1nc(-c2ccc(Cl)cc2)cc1N,-6.18
13,O=S(=O)(Nc1ccccn1)c1cccs1,20.2
14,CCN1CCSc2ccc(C(=O)NCc3ccc(OC(C)C)cc3)cc21,13
15,Cc1cccc(NC(=O)CSc2nnc(-c3ccco3)o2)c1,16.2
16,Cc1nc(N2CCC(C)CC2)c(C#N)c(C)c1[N+](=O)[O-],9.99
17,CCN(CC)CCN(Cc1cc2ccc(C)cc2[nH]c1=O)C(=O)NC1CCCCC1,-23.9
18,Cc1cc(C)c(NC(=O)COC(=O)CCn2c(C)csc2=O)c(C)c1,0.656
19,O=C(NCc1cccs1)c1cccnc1SCCS(=O)(=O)c1ccc(C(F)(F)F)cn1,4.76
20,CCCn1cc(CN2CCC(Cc3cccc(F)c3)(C(=O)OCC)CC2)c(C)n1,-60.3
